Assay results published in the supplement of paper PMC8728848.
The other results are listed elsewhere or left out.

Legend:
Assay in all cases: glycan array binding signal (z-score within array); higher = stronger binding
Conditions in all cases: glycan notation: IUPAC condensed, linker removed
[1] = biological target: Fuc(a1-2)Gal(b1-4)GlcNAc(b1-3)Gal(b1-4)GlcNAc(b1-3)Gal(b1-4)GlcNAc
How it was run: (§1)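 Columns mapping to the same glycan were averaged after glycan names were converted to IUPAC-condensed notation. The data come from 3228 arrays in the Consortium for Functional Glycomics database, limited to those with an available protein sequence. Binding is reported as a within-array Z-score averaged across arrays of one protein sequence and across linkers.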

[2] = biological target: Fuc(a1-2)Gal(b1-4)GlcNAc(b1-3)GalNAc
How it was run: as §1

[3] = biological target: Fuc(a1-2)Gal(b1-4)GlcNAc(b1-3)[Fuc(a1-2)Gal(b1-4)GlcNAc(b1-6)]GalNAc
How it was run: as §1

[4] = biological target: Fuc(a1-2)Gal(b1-4)GlcNAc(b1-3)[Fuc(a1-3)[Gal(b1-4)]GlcNAc(b1-6)]Gal(b1-4)Glc
How it was run: as §1

[5] = biological target: Fuc(a1-2)Gal(b1-4)GlcNAc(b1-6)GalNAc
How it was run: as §1

[6] = biological target: Fuc(a1-2)Gal(b1-4)GlcNAc6S
How it was run: as §1

[7] = biological target: Fuc(a1-2)Gal(b1-4)[Fuc(a1-3)]GlcNAc
How it was run: as §1

[8] = biological target: Fuc(a1-2)Gal(b1-4)[Fuc(a1-3)]GlcNAc(b1-2)Man(a1-3)[Fuc(a1-2)Gal(b1-4)[Fuc(a1-3)]GlcNAc(b1-2)Man(a1-6)]Man(b1-4)GlcNAc(b1-4)[Fuc(a1-6)]GlcNAc
How it was run: as §1

[9] = biological target: Fuc(a1-2)Gal(b1-4)[Fuc(a1-3)]GlcNAc(b1-2)[Fuc(a1-2)Gal(b1-4)[Fuc(a1-3)]GlcNAc(b1-4)]Man(a1-3)[Fuc(a1-2)Gal(b1-4)[Fuc(a1-3)]GlcNAc(b1-2)Man(a1-6)]Man(b1-4)GlcNAc(b1-4)GlcNAc
How it was run: as §1

[10] = biological target: Fuc(a1-2)Gal(b1-4)[Fuc(a1-3)]GlcNAc(b1-3)Gal(b1-4)[Fuc(a1-3)]GlcNAc
How it was run: as §1

[11] = biological target: Fuc(a1-2)Gal(b1-4)[Fuc(a1-3)]GlcNAc(b1-3)Gal(b1-4)[Fuc(a1-3)]GlcNAc(b1-3)Gal(b1-4)[Fuc(a1-3)]GlcNAc
How it was run: as §1

[12] = biological target: Fuc(a1-2)Gal(b1-4)[Fuc(a1-3)]GlcNAc(b1-3)GalNAc
How it was run: as §1

[13] = biological target: Fuc(a1-2)Gal(b1-4)[Fuc(a1-3)]GlcNAc(b1-3)[Neu5Ac(a2-6)Gal(b1-4)GlcNAc(b1-6)]Gal(b1-4)Glc
How it was run: as §1

[14] = biological target: Fuc(a1-2)Gal3S(b1-4)GlcNAc
How it was run: as §1

[15] = biological target: Fuc(a1-2)Gal6S(b1-3)GlcNAc
How it was run: as §1

[16] = biological target: Fuc(a1-2)Gal6S(b1-3)GlcNAc6S
How it was run: as §1

Fuc(a1-2)Gal6S(b1-4)Glc = biological target: Fuc(a1-2)Gal6S(b1-4)Glc
How it was run: as §1

[17] = biological target: Fuc(a1-2)Gal6S(b1-4)Glc6S
How it was run: as §1

Fuc(a1-2)[Gal(a1-3)]Gal = biological target: Fuc(a1-2)[Gal(a1-3)]Gal
How it was run: as §1

[18] = biological target: Fuc(a1-2)[Gal(a1-3)]Gal(b1-3)GalNAc
How it was run: as §1

[19] = biological target: Fuc(a1-2)[Gal(a1-3)]Gal(b1-3)GalNAc(b1-3)Gal(a1-4)Gal(b1-4)Glc
How it was run: as §1

[20] = biological target: Fuc(a1-2)[Gal(a1-3)]Gal(b1-3)GlcNAc
How it was run: as §1

[21] = biological target: Fuc(a1-2)[Gal(a1-3)]Gal(b1-3)GlcNAc(b1-2)Man(a1-3)[Fuc(a1-2)[Gal(a1-3)]Gal(b1-3)GlcNAc(b1-2)Man(a1-6)]Man(b1-4)GlcNAc(b1-4)GlcNAc
How it was run: as §1

[22] = biological target: Fuc(a1-2)[Gal(a1-3)]Gal(b1-3)GlcNAc(b1-2)Man(a1-3)[Fuc(a1-2)[Gal(a1-3)]Gal(b1-3)GlcNAc(b1-2)Man(a1-6)]Man(b1-4)GlcNAc(b1-4)[Fuc(a1-6)]GlcNAc
How it was run: as §1

[23] = biological target: Fuc(a1-2)[Gal(a1-3)]Gal(b1-3)GlcNAc(b1-3)GalNAc
How it was run: as §1

[24] = biological target: Fuc(a1-2)[Gal(a1-3)]Gal(b1-3)GlcNAc(b1-6)GalNAc
How it was run: as §1

[25] = biological target: Fuc(a1-2)[Gal(a1-3)]Gal(b1-4)Glc
How it was run: as §1

[26] = biological target: Fuc(a1-2)[Gal(a1-3)]Gal(b1-4)GlcNAc
How it was run: as §1

[27] = biological target: Fuc(a1-2)[Gal(a1-3)]Gal(b1-4)GlcNAc(b1-2)Man
How it was run: as §1

[28] = biological target: Fuc(a1-2)[Gal(a1-3)]Gal(b1-4)GlcNAc(b1-2)Man(a1-3)[Fuc(a1-2)[Gal(a1-3)]Gal(b1-4)GlcNAc(b1-2)Man(a1-6)]Man(b1-4)GlcNAc(b1-4)GlcNAc
How it was run: as §1

[29] = biological target: Fuc(a1-2)[Gal(a1-3)]Gal(b1-4)GlcNAc(b1-2)Man(a1-3)[Fuc(a1-2)[Gal(a1-3)]Gal(b1-4)GlcNAc(b1-2)Man(a1-6)]Man(b1-4)GlcNAc(b1-4)[Fuc(a1-6)]GlcNAc
How it was run: as §1

[30] = biological target: Fuc(a1-2)[Gal(a1-3)]Gal(b1-4)GlcNAc(b1-3)GalNAc
How it was run: as §1

[31] = biological target: Fuc(a1-2)[Gal(a1-3)]Gal(b1-4)GlcNAc(b1-3)[Fuc(a1-2)[Gal(a1-3)]Gal(b1-4)GlcNAc(b1-6)]GalNAc
How it was run: as §1

[32] = biological target: Fuc(a1-2)[Gal(a1-3)]Gal(b1-4)GlcNAc(b1-6)GalNAc
How it was run: as §1

[33] = biological target: Fuc(a1-2)[Gal(a1-3)]Gal(b1-4)[Fuc(a1-3)]Glc
How it was run: as §1

[34] = biological target: Fuc(a1-2)[Gal(a1-3)]Gal(b1-4)[Fuc(a1-3)]GlcNAc
How it was run: as §1

[35] = biological target: Fuc(a1-2)[Gal(a1-3)]Gal(b1-4)[Fuc(a1-3)]GlcNAc(b1-3)GalNAc
How it was run: as §1

[36] = biological target: Fuc(a1-2)[Gal(a1-4)]Gal(b1-4)GlcNAc
How it was run: as §1

[37] = biological target: Fuc(a1-2)[GalNAc(a1-3)]Gal
How it was run: as §1

[38] = biological target: Fuc(a1-2)[GalNAc(a1-3)]Gal(b1-3)GalNAc(a1-3)[Fuc(a1-2)]Gal(b1-4)GlcNAc
How it was run: as §1

[39] = biological target: Fuc(a1-2)[GalNAc(a1-3)]Gal(b1-3)GalNAc(b1-3)Gal(a1-4)Gal(b1-4)Glc
How it was run: as §1

[40] = biological target: Fuc(a1-2)[GalNAc(a1-3)]Gal(b1-3)GlcNAc
How it was run: as §1

[41] = biological target: Fuc(a1-2)[GalNAc(a1-3)]Gal(b1-3)GlcNAc(b1-2)Man(a1-3)[Fuc(a1-2)[GalNAc(a1-3)]Gal(b1-3)GlcNAc(b1-2)Man(a1-6)]Man(b1-4)GlcNAc(b1-4)GlcNAc
How it was run: as §1

[42] = biological target: Fuc(a1-2)[GalNAc(a1-3)]Gal(b1-3)GlcNAc(b1-2)Man(a1-3)[Fuc(a1-2)[GalNAc(a1-3)]Gal(b1-3)GlcNAc(b1-2)Man(a1-6)]Man(b1-4)GlcNAc(b1-4)[Fuc(a1-6)]GlcNAc
How it was run: as §1

[43] = biological target: Fuc(a1-2)[GalNAc(a1-3)]Gal(b1-3)GlcNAc(b1-3)GalNAc
How it was run: as §1

B1: CBM40 CPF071 (Clostridium perfringens) (protein)
chain: MAHHHHHHVGTGSNDDDDKSPDPMLSSLGEYKDINLESSNASNITYDLEKYKNLDEGTIVVRFNSKDSKIQSLLGISNSKTKNGYFNFYVTNSRVGFELRNQKNEGNTQNGTENLVHMYKDVALNDGDNTVALKIEKNKGYKLFLNGKMIKEVKDTNTKFLNNIENLDSAFIGKTNRYGQSNEYNFKGNIGFMNIYNEPLGDDYLLSKTGETK
[1]
  glycan array binding signal (z-score): 0.09
[2]
  glycan array binding signal (z-score): -0.614
[3]
  glycan array binding signal (z-score): -0.395
[4]
  glycan array binding signal (z-score): 2.74
[5]
  glycan array binding signal (z-score): -0.375
[6]
  glycan array binding signal (z-score): -0.165
[7]
  glycan array binding signal (z-score): 0.074
[8]
  glycan array binding signal (z-score): -0.075
[9]
  glycan array binding signal (z-score): -0.159
[10]
  glycan array binding signal (z-score): -0.457
[11]
  glycan array binding signal (z-score): 0.635
[12]
  glycan array binding signal (z-score): -0.448
[13]
  glycan array binding signal (z-score): -0.343
[14]
  glycan array binding signal (z-score): -0.643
[15]
  glycan array binding signal (z-score): -0.078
[16]
  glycan array binding signal (z-score): 0.289
Fuc(a1-2)Gal6S(b1-4)Glc
  glycan array binding signal (z-score): -0.398
[17]
  glycan array binding signal (z-score): 0.672
Fuc(a1-2)[Gal(a1-3)]Gal
  glycan array binding signal (z-score): -0.162
[18]
  glycan array binding signal (z-score): -0.316
[19]
  glycan array binding signal (z-score): 0.551
[20]
  glycan array binding signal (z-score): -0.142
[21]
  glycan array binding signal (z-score): -0.315
[22]
  glycan array binding signal (z-score): 0.077
[23]
  glycan array binding signal (z-score): -0.605
[24]
  glycan array binding signal (z-score): -0.443
[25]
  glycan array binding signal (z-score): 0.117
[26]
  glycan array binding signal (z-score): -0.217
[27]
  glycan array binding signal (z-score): -0.058
[28]
  glycan array binding signal (z-score): -0.308
[29]
  glycan array binding signal (z-score): -0.137
[30]
  glycan array binding signal (z-score): -0.107
[31]
  glycan array binding signal (z-score): 0.056
[32]
  glycan array binding signal (z-score): -0.209
[33]
  glycan array binding signal (z-score): -0.299
[34]
  glycan array binding signal (z-score): -0.541
[35]
  glycan array binding signal (z-score): -0.196
[36]
  glycan array binding signal (z-score): -0.244
[37]
  glycan array binding signal (z-score): -0.348
[38]
  glycan array binding signal (z-score): -0.262
[39]
  glycan array binding signal (z-score): 0.084
[40]
  glycan array binding signal (z-score): -0.569
[41]
  glycan array binding signal (z-score): -0.257
[42]
  glycan array binding signal (z-score): -0.332
[43]
  glycan array binding signal (z-score): -0.196
